According to patent US20240277736A1, “USE OF PSILOCYBIN IN THE TREATMENT OF NEUROLOGICAL BRAIN INJURY AND MIGRAINES” (priority 2020, published 2024):

Test system: TBI mice
Assay: Morris water maze test in a mouse model of traumatic brain injury (controlled cortical impact)

## CN(C)CCc1c[nH]c2cccc(OP(=O)(O)O)c12 [Psilocybin, 4-phosphoryloxy-N,N-dimethyltryptamine]
Psi-H (high dose: 50 µM in 20 μl saline i.n.), Day 3 (PID3, before drug treatment)
  Time in the target area: 2.89 ± 0.57 s
Psi-H (high dose: 50 µM in 20 μl saline i.n., day 4 to day 8 after CCI), Day 10
  Time in the target area: 3.72 ± 0.26 s
Psi-H (high dose: 50 µM in 20 μl saline i.n., day 4 to day 8 after CCI), Day 14
  Time in the target area: 3.45 ± 0.18 s
Psi-H (high dose: 50 µM in 20 μl saline i.n., day 4 to day 8 after CCI), Day 21
  Time in the target area: 3.88 ± 0.18 s
Psi-L (low dose: 50 µM in 10 μl saline i.n.), Day 3 (PID3, before drug treatment)
  Time in the target area: 3.21 ± 0.84 s
Psi-L (low dose: 50 µM in 10 μl saline i.n., day 4 to day 8 after CCI), Day 10
  Time in the target area: 2.87 ± 0.45 s
Psi-L (low dose: 50 µM in 10 μl saline i.n., day 4 to day 8 after CCI), Day 14
  Time in the target area: 2.82 ± 0.45 s
Psi-L (low dose: 50 µM in 10 μl saline i.n., day 4 to day 8 after CCI), Day 21
  Time in the target area: 2.51 ± 0.41 s
